Assay results reported in ChEMBL document CHEMBL4888484, “Replenishing the malaria drug discovery pipeline: Screening and hit evaluation of the MMV Hit Generation Library 1 (HGL1) against asexual blood stage Plasmodium falciparum ,using a nano luciferase reporter read-out” (2022).
About 540 (0.36%) of roughly 150,000 compounds showed an effect of 50% or more. The list shows a part of the results.

Each compound was assayed on Plasmodium falciparum (assay: Primary screen in NF54 nanoGlo assay, in single point, at 2uM, 72h; a lower Z score goes with more inhibition). Conditions: timepoint 72 hour.
Format: functional, Erythrocyte
`O=C(C[C@H]1CCCOC1)N1CCC2(CC1)Cc1cccc(c1)Oc1cccc(c1)CCNC2=O` was tested, and the “% Inhibition” value was -7% and the Z score was 1.29. With `CCOc1cccc(C(=O)N(C)c2ccc(-c3ccccc3)nn2)c1` the “% Inhibition” value was -9% and the Z score was 1.19. In the case of `O=C(Nc1cnn(Cc2cc(F)ccc2Cl)c1)[C@@H](O)C1CCOCC1`, the “% Inhibition” value is reported as -6% and the Z score is reported as 1.13. In the case of `O=C(Cc1ccc(Cn2c(=O)[nH]c3ccsc3c2=O)cc1)N1CCN(c2ccc(F)cc2)CC1`, the “% Inhibition” value is reported as 25% and the Z score is reported as -2.86. In the case of `O=C1CC(CC(=O)N2CC3CCC2C3)(c2ccccc2)C(=O)N1CCc1ccccn1` (stereo not drawn), the “% Inhibition” value is reported as 5% and the Z score is reported as -0.61. `CCC[C@@H](CC(=O)O)NC(=O)c1cncc(F)c1` was tested, and the “% Inhibition” value was -11% and the Z score was 2.06. In the case of `COc1cc(CS(=O)(=O)[C@@H](C)c2ccc3c(c2)CCC3)ccn1`, the “% Inhibition” value is reported as -1% and the Z score is reported as 0.17. For `O=C(CCc1ccc2c(c1)OCO2)N1CCN(c2ccccc2O)CC1`, the “% Inhibition” value was -6% and the Z score was 1.07. For `O=C(Nc1ccc2[nH]c(=O)[nH]c2c1)c1cccs1`, the “% Inhibition” value was -1% and the Z score was 0.2. `Cc1cn2cc(C(=O)NCCN3CC[C@H](c4ccccc4C)C3)ccc2n1` was tested, and the “% Inhibition” value was 4% and the Z score was -0.59. With `CCn1nccc1[C@@H]1CCCN1S(=O)(=O)c1ccc(Br)cc1` the “% Inhibition” value was -1% and the Z score was 0.22. For `Cc1cc(NC(=O)NC[C@H]2CCC3(CCC3)CO2)cnc1C(F)F`, the “% Inhibition” value was -8% and the Z score was 1.07. For `Cc1ncccc1NC(=O)C12CCC(C(F)(F)F)(CC1)CC2`, the “% Inhibition” value was -2% and the Z score was 0.35. In the case of `O=C(CN1CCCCC1=O)Nc1ccc(OC2CCC2)c(F)c1`, the “% Inhibition” value is reported as -8% and the Z score is reported as 1.6. For `COc1ccc(Nc2nc(-c3cccc(Cl)c3)c3c(n2)-c2ccccc2OC3)cc1`, the “% Inhibition” value was -9% and the Z score was 1.3. With `CN(C)C(=O)CCN(CCO)Cc1cc(Br)ccc1F` the “% Inhibition” value was -5% and the Z score was 0.69. For `COc1ccc(-n2cnnc2C(c2ccccc2)c2ccccc2)cc1`, the “% Inhibition” value was 7% and the Z score was -0.89. With `O=S(=O)(c1ccc(N2CCCCC2)nc1)N1CCCC1` the “% Inhibition” value was -8% and the Z score was 1.23. `CN1CCC(n2nc([C@H]3CCOC3)nc2C2CC=CC2)CC1` was tested, and the “% Inhibition” value was -10% and the Z score was 1.88. With `CCCn1cnnc1CNC(=O)c1cc(Cn2nc(C)cc2C)[nH]n1` the “% Inhibition” value was -13% and the Z score was 2.69. `CCc1ccc([C@@H]2CCCN2c2nc(N)nc(C3CC3)n2)o1` was tested, and the “% Inhibition” value was -2% and the Z score was 0.29. For `CC1(C)C(=O)NCCN1C(=O)C[C@@H](c1ccc(O)cc1)c1ccccc1O`, the “% Inhibition” value was 12% and the Z score was -1.56. With `CCC(Oc1ccc2c(c1)C(c1ccc(F)cc1)N(C(=O)C(C)(C)C)CC2)C(=O)NCC1CCCO1` (stereo not drawn) the “% Inhibition” value was 2% and the Z score was -0.37. With `Cc1cccc2c(=O)n(CC(=O)NCc3ccc(N4CCN(C)CC4)nc3)cnc12` the “% Inhibition” value was -9% and the Z score was 0.84. With `Cc1c(CC(=O)N2CCc3nc[nH]c3C23CCC3)cnn1C` the “% Inhibition” value was -7% and the Z score was 0.95. In the case of `N#Cc1cc(Oc2nc3ccccc3s2)c(N2CCOCC2)cc1C#N`, the “% Inhibition” value is reported as 6% and the Z score is reported as -0.73. For `COc1ccc(-c2cncc(CN3CCN(C)CC3)c2)cc1OC`, the “% Inhibition” value was -5% and the Z score was 0.7. In the case of `COc1cncc(S(=O)(=O)NC2(c3ccccc3F)COC2)c1`, the “% Inhibition” value is reported as 18% and the Z score is reported as -2.34. In the case of `Cn1cnc2c3ccccc3n(Cc3ccccc3)c2c1=O`, the “% Inhibition” value is reported as -8% and the Z score is reported as 1.6. In the case of `CCOc1ccc(NC(=O)CC2C(=O)NC3CCCCC3N2C(=O)C(C)C)cc1` (stereo not drawn), the “% Inhibition” value is reported as -17% and the Z score is reported as 2.26. In the case of `Cc1cc(C(=O)N2CCC[C@@]3(CCC(=O)N(Cc4cccnc4)C3)C2)n(C)n1`, the “% Inhibition” value is reported as -16% and the Z score is reported as 1.78. For `CCn1nccc1C(=O)N1CCCC[C@@]1(C)c1noc(C2CC2)n1`, the “% Inhibition” value was 31% and the Z score was -3.56. `CN(C)CCNCCOc1ccccc1` was tested, and the “% Inhibition” value was -4% and the Z score was 0.56. `Cc1ccc(-c2nnc(-c3cccc(S(=O)(=O)N(C)C)c3)o2)n1C` was tested, and the “% Inhibition” value was -18% and the Z score was 2.78. In the case of `O=C(Cn1nnc2ccccc21)NC1CCCCC1`, the “% Inhibition” value is reported as -10% and the Z score is reported as 1.41. For `O=C(c1ccc(F)cc1)N1C2COCC1C2`, the “% Inhibition” value was -8% and the Z score was 1.08. With `c1cnc(-c2noc(C3CCCCCC3)n2)cn1` the “% Inhibition” value was 2% and the Z score was -0.27. In the case of `COC(=O)CCNC(=O)COc1cnn(C)c1C(F)(F)F`, the “% Inhibition” value is reported as -4% and the Z score is reported as 0.55. In the case of `Cn1nc(CC2CCN(C(=O)c3cnc[nH]3)CC2)n(-c2ccccc2)c1=O`, the “% Inhibition” value is reported as 1% and the Z score is reported as -0.24. In the case of `Cc1ccc(N2C(=O)N[C@H]3C[C@]2(C)Oc2ccc(Br)cc23)cc1C`, the “% Inhibition” value is reported as -1% and the Z score is reported as 0.14. `O=C1O[C@](Nc2ccc(Cl)cc2)(c2ccc(Cl)cc2)c2ccccc21` was tested, and the “% Inhibition” value was 1% and the Z score was -0.2. `CN(Cc1ccccc1)c1nc2ncn(CC(=O)Nc3cccc(Br)c3)c(=O)c2s1` was tested, and the “% Inhibition” value was 26% and the Z score was -3.47. In the case of `O=C(c1cnn2cc(CCO)cnc12)N1CC=C(c2ccccc2)CC1`, the “% Inhibition” value is reported as -7% and the Z score is reported as 0.97. In the case of `CN1CCCN(C(=O)c2ccncc2)c2nc3ccccc3nc21`, the “% Inhibition” value is reported as -8% and the Z score is reported as 0.96. `CN(C)S(=O)(=O)N1CCCC[C@H]1c1n[nH]c2c1COCC2` was tested, and the “% Inhibition” value was 2% and the Z score was -0.2. With `Cc1noc(C)c1C(=O)N1C[C@@H]2COc3ccccc3C[C@]2(CO)C1` the “% Inhibition” value was -12% and the Z score was 1.95. In the case of `CCCc1nnc(N2CCCC3(CCN(C)CC3)CC2)o1`, the “% Inhibition” value is reported as -6% and the Z score is reported as 1.26. In the case of `CCc1ccc(C(=O)N2CCC3(CC2)OC[C@@H](C(=O)N2CCN(C(C)=O)CC2)N3C(=O)c2ccc(F)cc2)cc1`, the “% Inhibition” value is reported as -7% and the Z score is reported as 0.7. For `Cc1c(Cl)cncc1NC(=O)N[C@H]1CCCNC1=O`, the “% Inhibition” value was -7% and the Z score was 1.14. `Cn1ccc([C@H]2CCCN(C(=O)c3cccc(C#N)c3)C2)n1` was tested, and the “% Inhibition” value was -6% and the Z score was 0.72. With `COCC(C)N1CCN(S(=O)(=O)N2CC(C)CC(C)C2)CC1` (stereo not drawn) the “% Inhibition” value was -3% and the Z score was 0.44. With `Cc1cc(N2CCN(c3cccc(C)c3C)CC2)n2cnnc2n1` the “% Inhibition” value was -5% and the Z score was 0.64. With `Cc1n[nH]c(C2CN(C(C)c3nc4ccccc4c(=O)[nH]3)CCO2)n1` (stereo not drawn) the “% Inhibition” value was -13% and the Z score was 1.5. With `Cc1cn2cc(C(=O)N[C@@H](C)c3nnc(N)s3)ccc2n1` the “% Inhibition” value was -8% and the Z score was 1.24. `O=C(c1[nH]nc2c1CCCCC2)N1CCN(Cc2ccccc2Cl)CC1` was tested, and the “% Inhibition” value was -5% and the Z score was 0.61. For `CCOC(=O)N1CCN(C2CCC(C)C2)CC1` (stereo not drawn), the “% Inhibition” value was -13% and the Z score was 2.38. In the case of `O=C1CN(C(=O)c2cc(S(=O)(=O)N3CCCCC3)ccc2N2CCCC2)CCN1`, the “% Inhibition” value is reported as -12% and the Z score is reported as 1.5. `CC(C)(C)c1nc(CS(=O)(=O)Cc2ccccc2F)no1` was tested, and the “% Inhibition” value was 12% and the Z score was -1.6. In the case of `Cc1ccc2c(=O)c(-c3nc(-c4ccc(Cl)cc4)no3)cn(CC(=O)Nc3cccc(C)c3C)c2n1`, the “% Inhibition” value is reported as -12% and the Z score is reported as 1.03. For `Nc1nnc(C2CCN(C(=O)NCCc3ccc(F)cc3)CC2)o1`, the “% Inhibition” value was 2% and the Z score was -0.3. In the case of `CCCNc1nc(OC(C(F)(F)F)C(F)(F)F)nc(N2CCCCCC2)n1`, the “% Inhibition” value is reported as -8% and the Z score is reported as 1.21. In the case of `Cc1cnn(C2CN(CC(=O)Nc3nnc(C)s3)C2)c1`, the “% Inhibition” value is reported as 3% and the Z score is reported as -0.55. In the case of `C[C@@H](CC(=O)Nc1ccc(F)cc1)Cc1nnc2c(=O)n(-c3cccc(F)c3)ccn12`, the “% Inhibition” value is reported as -4% and the Z score is reported as 0.53. In the case of `N#Cc1c(NCc2cccnc2)ncnc1N1CCCC1`, the “% Inhibition” value is reported as -14% and the Z score is reported as 1.37. With `CCn1cc(CNCc2cnn(C)n2)c(C)n1` the “% Inhibition” value was -10% and the Z score was 1.65. For `CCOC1CC(O)(CNS(=O)(=O)c2cc(F)cc(Cl)c2)C1(C)C` (stereo not drawn), the “% Inhibition” value was 1% and the Z score was -0.2. In the case of `O=C(Cc1ccccc1)Nc1ccc(C(=O)NC2CCCCC2)cc1`, the “% Inhibition” value is reported as 8% and the Z score is reported as -1.28. For `CCc1nnc(CN(CC)C[C@H]2CCOC(C)(C)C2)o1`, the “% Inhibition” value was -14% and the Z score was 2.42. For `CN(C)S(=O)(=O)c1ccc(N2CCCCC2)c(C(=O)NC[C@@H](c2ccco2)N2CCCC2)c1`, the “% Inhibition” value was 34% and the Z score was -3.84. In the case of `COc1ccccc1Cc1nc(CCC(C)C)nn1C`, the “% Inhibition” value is reported as -15% and the Z score is reported as 2.29. For `N#Cc1cc(Br)ccc1NC1CC(=O)N2CCCCC12` (stereo not drawn), the “% Inhibition” value was 34% and the Z score was -3.82. In the case of `CN1CCN(c2cc(N3CC(C)(C)[C@@](C)(O)C3)nc(N)n2)CC1`, the “% Inhibition” value is reported as -5% and the Z score is reported as 0.49. With `Cc1cccc(C)c1NC(=O)[C@H](C)n1nc(C)c2c(C)onc2c1=O` the “% Inhibition” value was -1% and the Z score was 0.07. With `COc1ccc(OC)c(-n2c(-c3ccccc3)cc(C(=O)N3CCN(C/C=C/c4ccccc4)CC3)c2C)c1` the “% Inhibition” value was -8% and the Z score was 1.24. With `CC(C)[C@@H]1N(C(=O)c2ccnn2C2CCCC2)CC12CCC2` the “% Inhibition” value was -5% and the Z score was 0.72. With `CCn1cc(C(=O)N2CC(n3cc(COCC4CC4)nn3)C2)cn1` the “% Inhibition” value was -3% and the Z score was 0.63. For `Cc1ccc(Cl)cc1NC(=O)Cn1nc2c3ccccc3ncn2c1=O`, the “% Inhibition” value was -6% and the Z score was 1. For `Cc1cc(CN2CCN(C(=O)Nc3ccc(F)cn3)CC2)on1`, the “% Inhibition” value was -24% and the Z score was 3.29. In the case of `C[C@H]1COCCN1C(=O)CCc1ccco1`, the “% Inhibition” value is reported as -2% and the Z score is reported as 0.25. With `c1cncc(-c2n[nH]c(C3CCC3)n2)c1` the “% Inhibition” value was -11% and the Z score was 2.07. In the case of `Cc1nn(C(C)C)cc1CNc1cnc2[nH]ccc2c1`, the “% Inhibition” value is reported as -2% and the Z score is reported as 0.42. For `O=S1(=O)NC[C@H](O)CN(Cc2ccccc2)C[C@@]2(COc3cc(-c4ccccc4)ccc31)C[C@@H](O)[C@@H](O)C2`, the “% Inhibition” value was -17% and the Z score was 2.13. In the case of `COC(=O)CN(CCN1CCOCC1)Cc1cccc2cccnc12`, the “% Inhibition” value is reported as 1% and the Z score is reported as -0.12. For `COCCN(CCc1ccccc1)c1nnc(-c2ccc(C)s2)n1C`, the “% Inhibition” value was -5% and the Z score was 0.77.
